One assay deals with T1, HDAC1 (residues 1–482) (UniProt Q13547).
T1 construct: Two copies stand in the HDAC1:MTA1 dimer complex; also called histone deacetylase 1; source: HEK293F, co-transfected, in lysate; co-purified (FLAG resin, TEV protease, Superose 6)
Nature of the assay: pull-down; complex co-expressed with Strep-MBD2 and untagged MBD2, purified on FLAG resin, TEV-eluted, gel filtrated (Superose 6), then applied to Strep-Tactin XT Superflow resin, washed five times with buffer C (25 mM Tris-HCl pH 7.5, 75 mM potassium acetate, 0.5 mM TCEP), resin loaded on SDS-PAGE. The settings on record: both partners purified.

The target in assay [1] is T2, MTA1 ELM2-SANT domain (residues 162–354) (UniProt Q13330 162-354).
T2 construct: The tag held the complex on the FLAG resin; it was cleaved off by TEV protease before gel filtration, SEC-MALS, the Strep-Tactin step and cryo-EM; also called MTA1 wildtype; source: HEK293F, co-transfected, in lysate; co-purified (FLAG resin, TEV protease, Superose 6); not shown: His10-Flag3, N-terminal, kept
T2 sequence (looked up): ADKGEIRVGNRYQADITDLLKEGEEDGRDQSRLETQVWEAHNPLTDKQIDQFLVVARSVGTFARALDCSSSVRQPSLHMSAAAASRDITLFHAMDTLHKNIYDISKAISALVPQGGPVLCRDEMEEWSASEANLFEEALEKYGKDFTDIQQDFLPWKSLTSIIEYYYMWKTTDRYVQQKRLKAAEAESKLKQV
Nature of the assay: SEC-MALS; peak fraction of the gel filtration-pure HDAC1:MTA1:MBD2 complex re-run on Superose 6 with refractive index and MALS detectors. The conditions noted are these: both partners purified. For orientation: In gel filtration, larger molecules generally elute earlier.

Here are results for two molecules from article PMC7736783 (Nucleic Acids Research, 2020).

B1: Strep-MBD2 ([…]) (domain or fragment)
chain: GGSGGGGAPRREPVPFPSGSAGPGPRGPRATES[left out - about 60 residues]SKLQKNKQRLRNDPLNQNKGKPDLNTTLPIRQTASIFKQPVTKVTNHPSNKVKSDPQRMNEQPRQLFWEKRLQGLSASDVTEQIIKTMELPKGLQGVGPGSNDETLLSAVASALHTSSAPITGQVSAAVEKNPAVWLNTSQPLCKAFIVTDEDIRKQEERVQQVRKKLEEALMADILSRAADTEEMDIEMDSGDEA
notes: MBD2, […]; source: HEK293F, co-transfected, in lysate; co-purified (FLAG resin, TEV protease, Superose 6)
With B1, in the assay with HDAC1 (residues 1–482), the binding result is “binds”.

B2: MBD2 ([…]) (domain or fragment)
chain: not shown
notes: also called untagged MBD2; source: HEK293F, co-transfected, in lysate; co-purified (FLAG resin, TEV protease, Superose 6)
With B2, the “stoichiometry N” value in assay [1] is 0.5 MBD2 per MTA1 (HDAC1:MTA1:MBD2 2:2:1).
